Reference: the supplement of paper PMC10126150
Values marked as one replicate rest on one cluster of the flow cell; about a third of the high ones do not repeat.
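Further: ATP exposure 15 min at 22 °C before imaging.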

The sequences below were run on ATP (assay: switch fluorescence ratio, 500 uM ATP over buffer (Cy3 cluster intensity, sum of 5 cycles each) (fold (ratio)); higher = stronger signal-on switching upon ATP binding; sequences stand for … in TCGTCGGCAGCGTCAGATGTGTATAAGAGACAGTTTTTTTTTTTTTTTTTTTTTTTTT…TC). Conditions: aptamer strand: ATP DNA aptamer (quencher-CACCTGGGGGAGTATTGCGGAGGAAGG + anchor), 100 nM annealed; ATP concentration: 500 uM; one replicate.
Method in brief: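 Switching-strand clusters labelled with Cy3 on a modified Illumina MiSeq flow-cell were annealed to 100 nM quencher-labelled ATP aptamer, imaged in selection buffer, and re-imaged after 15 min with 500 uM ATP at 22 °C. This was done over five cycles with NaOH stripping and re-annealing in between. The fluorescence ratio is summed target-cycle over summed buffer-cycle Cy3 intensity per cluster, averaged per switch-domain sequence, excluding clusters outside 100-1000 RFU.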
CCTGAACCAT showed a switch fluorescence ratio of 1.03. CCTGAAGGAT gave a switch fluorescence ratio of 0.971. In the case of CCTGACCAAG, the switch fluorescence ratio was 1.03. CCTGACTAG showed a switch fluorescence ratio of 1.01. CCTGACTAGC was tested, and the switch fluorescence ratio was 1.78. Sequence CCTGACTAGG has a switch fluorescence ratio of 0.913. With CCTGACTCGG the switch fluorescence ratio was 1.29. For CCTGAGGTAA, the switch fluorescence ratio was 1.08. For CCTGATGTAT, the switch fluorescence ratio was 0.995. CCTGATTGTC showed a switch fluorescence ratio of 1.07. CCTGCGGATC was tested, and the switch fluorescence ratio was 3.06. For CCTGCGGGAT, the switch fluorescence ratio was 0.937. CCTGCGGGTT was tested, and the switch fluorescence ratio was 1.12. CCTGGAACAA showed a switch fluorescence ratio of 1.39. In the case of CCTGGAACTC, the switch fluorescence ratio was 1.05. CCTGGAAGTG was tested, and the switch fluorescence ratio was 1.1. Work on CCTGGCCATT yielded a switch fluorescence ratio of 1.06. CCTGGCTAGG gave a switch fluorescence ratio of 1.01. Work on CCTGGGATTG yielded a switch fluorescence ratio of 0.999. In the case of CCTGGTGTGG, the switch fluorescence ratio was 0.998. Work on CCTGGTTTTA yielded a switch fluorescence ratio of 0.981. CCTGTAATAT was tested, and the switch fluorescence ratio was 2.82. For CCTGTACAGC, the switch fluorescence ratio was 0.976. CCTGTGGGGA gave a switch fluorescence ratio of 1. CCTGTGTTTC gave a switch fluorescence ratio of 1.06. CCTGTTGTC gave a switch fluorescence ratio of 0.955. CCTTAAGCC showed a switch fluorescence ratio of 1.62. Sequence CCTTACATG has a switch fluorescence ratio of 1.01. CCTTACGTCC gave a switch fluorescence ratio of 1.26. Work on CCTTAGGCGT yielded a switch fluorescence ratio of 1.04. CCTTATACCC was tested, and the switch fluorescence ratio was 1.14. With CCTTATATCA the switch fluorescence ratio was 1.06. Sequence CCTTCATTGT has a switch fluorescence ratio of 1.04. CCTTCTATTC gave a switch fluorescence ratio of 1.15. CCTTCTCACC gave a switch fluorescence ratio of 1.3. For CCTTGAGGCG, the switch fluorescence ratio was 1.05. CCTTGCCGA showed a switch fluorescence ratio of 1.09. CCTTGCGCTG was tested, and the switch fluorescence ratio was 1.73. In the case of CCTTGCTCAA, the switch fluorescence ratio was 2.02. Work on CCTTGGCGCT yielded a switch fluorescence ratio of 1.09. CCTTGGGGCA was tested, and the switch fluorescence ratio was 1.01. Sequence CCTTGGTACT has a switch fluorescence ratio of 1.13. For CCTTGGTTGA, the switch fluorescence ratio was 1.03. Sequence CCTTGTGCGA has a switch fluorescence ratio of 2.01. For CCTTGTGGTG, the switch fluorescence ratio was 0.977. With CCTTTACAGT the switch fluorescence ratio was 1.06. Sequence CCTTTACAT has a switch fluorescence ratio of 1.07. With CCTTTATCTA the switch fluorescence ratio was 1.01. With CCTTTCCTTT the switch fluorescence ratio was 1.03. For CCTTTCGTCT, the switch fluorescence ratio was 1.04. With CCTTTTAAT the switch fluorescence ratio was 1.04. CCTTTTGCCT gave a switch fluorescence ratio of 1.05. CCTTTTTCCA showed a switch fluorescence ratio of 1.04. Sequence CGAAAAACAG has a switch fluorescence ratio of 1.11. Work on CGAAAAATAT yielded a switch fluorescence ratio of 1.04. In the case of CGAAAAATTG, the switch fluorescence ratio was 1.02. CGAAAATAGG gave a switch fluorescence ratio of 1. In the case of CGAAAGGAAC, the switch fluorescence ratio was 1.01. For CGAAAGGTAA, the switch fluorescence ratio was 0.973. In the case of CGAAAGTTAG, the switch fluorescence ratio was 0.983. CGAAATGAAG showed a switch fluorescence ratio of 0.988. With CGAAATTGCC the switch fluorescence ratio was 0.986. CGAACCAGGG showed a switch fluorescence ratio of 1.08. CGAACGTGTG showed a switch fluorescence ratio of 0.946. With CGAACTGGCT the switch fluorescence ratio was 1.01. In the case of CGAACTTTTT, the switch fluorescence ratio was 0.989. In the case of CGAAGACGC, the switch fluorescence ratio was 1.08. With CGAAGACGTG the switch fluorescence ratio was 0.962. In the case of CGAAGCCTGT, the switch fluorescence ratio was 1.18. In the case of CGAAGGGGCC, the switch fluorescence ratio was 0.976. Work on CGAAGGGGTC yielded a switch fluorescence ratio of 1.03. Work on CGAAGGGTG yielded a switch fluorescence ratio of 1.02. Work on CGAAGTAAAC yielded a switch fluorescence ratio of 4.26. CGAAGTGAAG was tested, and the switch fluorescence ratio was 1.01. CGAAGTGCGG showed a switch fluorescence ratio of 0.97. CGAAGTGGCG showed a switch fluorescence ratio of 0.994. Work on CGAAGTTGGA yielded a switch fluorescence ratio of 0.942. In the case of CGAATAAGC, the switch fluorescence ratio was 1.01. For CGAATATTTT, the switch fluorescence ratio was 0.99. In the case of CGAATCAGCT, the switch fluorescence ratio was 0.978. Sequence CGAATCTTTA has a switch fluorescence ratio of 0.948. In the case of CGAATGAGTA, the switch fluorescence ratio was 0.976. CGAATGTGTC gave a switch fluorescence ratio of 1.04. Sequence CGAATGTTAC has a switch fluorescence ratio of 1.16. Work on CGAATTGAAT yielded a switch fluorescence ratio of 1.01. For CGACAATGAT, the switch fluorescence ratio was 1.08. Work on CGACACGGC yielded a switch fluorescence ratio of 1.11. Sequence CGACATGACC has a switch fluorescence ratio of 1.15. CGACCAGGCG was tested, and the switch fluorescence ratio was 1.24. In the case of CGACCCATTG, the switch fluorescence ratio was 1.01. Sequence CGACCGCACT has a switch fluorescence ratio of 3.79. For CGACCTATGT, the switch fluorescence ratio was 0.989. In the case of CGACCTCCTG, the switch fluorescence ratio was 1.06. CGACGAAGTC showed a switch fluorescence ratio of 1.03. With CGACGACATC the switch fluorescence ratio was 3.66. For CGACGAGGGC, the switch fluorescence ratio was 1.78. CGACGAGTCC gave a switch fluorescence ratio of 1.08. In the case of CGACGCCTAT, the switch fluorescence ratio was 3.66. Work on CGACGCTTGA yielded a switch fluorescence ratio of 2.28. Work on CGACGGAGGA yielded a switch fluorescence ratio of 1.31. Sequence CGACGGCTGC has a switch fluorescence ratio of 1.48. For CGACGGGCGC, the switch fluorescence ratio was 2.11. Sequence CGACGGTGGC has a switch fluorescence ratio of 1.14. Sequence CGACGGTTTC has a switch fluorescence ratio of 1.59. For CGACGTCGAT, the switch fluorescence ratio was 1.03. In the case of CGACTATCAC, the switch fluorescence ratio was 1.3. CGACTATGGG showed a switch fluorescence ratio of 0.998. For CGACTGAGT, the switch fluorescence ratio was 0.994. CGACTGGCTT gave a switch fluorescence ratio of 1.09. Work on CGACTGTGGC yielded a switch fluorescence ratio of 1.01. CGACTTAAGC was tested, and the switch fluorescence ratio was 1.08. In the case of CGACTTATGA, the switch fluorescence ratio was 1.03. In the case of CGAGAAAAAA, the switch fluorescence ratio was 0.996. CGAGAATCTG was tested, and the switch fluorescence ratio was 0.953. Work on CGAGAGGCAG yielded a switch fluorescence ratio of 0.999. Work on CGAGAGTAA yielded a switch fluorescence ratio of 1.12. CGAGATAACA showed a switch fluorescence ratio of 0.963. CGAGCACGCG showed a switch fluorescence ratio of 1.03. CGAGCCGGAT showed a switch fluorescence ratio of 1.07. CGAGCCGTAA was tested, and the switch fluorescence ratio was 0.929. Sequence CGAGCGATCA has a switch fluorescence ratio of 1.29. With CGAGCGATTC the switch fluorescence ratio was 6.01. Sequence CGAGCGGATT has a switch fluorescence ratio of 1.06. For CGAGCGGGCG, the switch fluorescence ratio was 0.936. With CGAGCTGCCT the switch fluorescence ratio was 1.02. For CGAGGAAGAC, the switch fluorescence ratio was 2.95. Work on CGAGGACGCC yielded a switch fluorescence ratio of 1.65. CGAGGATATG was tested, and the switch fluorescence ratio was 1.02. For CGAGGATGTT, the switch fluorescence ratio was 0.991. CGAGGCAACC showed a switch fluorescence ratio of 1.08. Work on CGAGGCATTG yielded a switch fluorescence ratio of 0.998. CGAGGCCGCG showed a switch fluorescence ratio of 0.971. CGAGGGACTT gave a switch fluorescence ratio of 1.03. For CGAGGGCGTA, the switch fluorescence ratio was 0.951. CGAGGGTATA was tested, and the switch fluorescence ratio was 1.32. For CGAGGTGGCC, the switch fluorescence ratio was 1.02. In the case of CGAGTAAAGT, the switch fluorescence ratio was 0.984. Work on CGAGTACTTA yielded a switch fluorescence ratio of 0.989. Work on CGAGTAGAAG yielded a switch fluorescence ratio of 0.96. CGAGTAGTCC showed a switch fluorescence ratio of 1. CGAGTATTGA showed a switch fluorescence ratio of 0.986. For CGAGTCAGGA, the switch fluorescence ratio was 1.03. With CGAGTCCTT the switch fluorescence ratio was 1.02. In the case of CGAGTGATGC, the switch fluorescence ratio was 1.88. Sequence CGAGTGCGTC has a switch fluorescence ratio of 1.04. CGAGTTGTC gave a switch fluorescence ratio of 0.934. In the case of CGAGTTGTCC, the switch fluorescence ratio was 0.995. Sequence CGAGTTTCCC has a switch fluorescence ratio of 0.988. Work on CGAGTTTTTC yielded a switch fluorescence ratio of 1.04. CGATAAAGA showed a switch fluorescence ratio of 1.04. With CGATAAAGCC the switch fluorescence ratio was 1.05. With CGATACCTAA the switch fluorescence ratio was 1.04. CGATACGAGC was tested, and the switch fluorescence ratio was 1.06. CGATACTTT showed a switch fluorescence ratio of 0.981. CGATAGCGTA gave a switch fluorescence ratio of 1.06. For CGATCACCC, the switch fluorescence ratio was 0.996. Work on CGATCATTGT yielded a switch fluorescence ratio of 0.956. CGATCCAACC was tested, and the switch fluorescence ratio was 1.05. In the case of CGATCCACAT, the switch fluorescence ratio was 1.04. CGATCGCTGT showed a switch fluorescence ratio of 1.52. Work on CGATCGGGGT yielded a switch fluorescence ratio of 0.986. CGATCGTAAG was tested, and the switch fluorescence ratio was 1. For CGATCGTTAT, the switch fluorescence ratio was 1.09. Work on CGATCGTTCT yielded a switch fluorescence ratio of 0.979. With CGATCTCAGT the switch fluorescence ratio was 0.938. CGATCTCTT showed a switch fluorescence ratio of 0.99. For CGATGAGAGC, the switch fluorescence ratio was 0.973. CGATGCTGGG showed a switch fluorescence ratio of 1.07. Work on CGATGGCACG yielded a switch fluorescence ratio of 1.03. CGATGTATGG was tested, and the switch fluorescence ratio was 0.985. With CGATGTGAC the switch fluorescence ratio was 1.24. Sequence CGATGTGCGT has a switch fluorescence ratio of 1.02. With CGATGTGGG the switch fluorescence ratio was 1.01. For CGATTAGGGT, the switch fluorescence ratio was 1.02. CGATTCCCTT showed a switch fluorescence ratio of 1.04. CGATTTGTTT showed a switch fluorescence ratio of 0.983. CGATTTTT was tested, and the switch fluorescence ratio was 0.99. With CGCAAACCTG the switch fluorescence ratio was 1.21. For CGCAAAGCTT, the switch fluorescence ratio was 1.21. CGCAAATCTT gave a switch fluorescence ratio of 1.73. Work on CGCAACCTTG yielded a switch fluorescence ratio of 1.21. CGCAATTGGA was tested, and the switch fluorescence ratio was 2.45. Sequence CGCAATTTGT has a switch fluorescence ratio of 2.22. For CGCACATTCG, the switch fluorescence ratio was 1.29. For CGCACGGGTT, the switch fluorescence ratio was 0.954. Sequence CGCACGTATC has a switch fluorescence ratio of 1.04. CGCACGTTCG showed a switch fluorescence ratio of 1.05. Work on CGCACTGTCG yielded a switch fluorescence ratio of 0.963. CGCACTTCTT was tested, and the switch fluorescence ratio was 1.16. CGCAGAACTC was tested, and the switch fluorescence ratio was 3.14. CGCAGATGAA was tested, and the switch fluorescence ratio was 1.01. CGCAGCTTTA was tested, and the switch fluorescence ratio was 2.53. CGCAGGCTT gave a switch fluorescence ratio of 1.15. With CGCAGGTGCA the switch fluorescence ratio was 2.51. Sequence CGCAGTACGT has a switch fluorescence ratio of 3.95. With CGCATCCG the switch fluorescence ratio was 1.05. In the case of CGCATCGCTT, the switch fluorescence ratio was 1.02. Sequence CGCATGCTGA has a switch fluorescence ratio of 1.01. CGCATGGGGC showed a switch fluorescence ratio of 1.32. CGCATGTATG gave a switch fluorescence ratio of 1.07. In the case of CGCATTCTTG, the switch fluorescence ratio was 1.09.
